# Assay results: PubChem BioAssay AID1721 (National Center for Advancing Translational Sciences (NCATS), 2009)
# In all, about 290,000 compounds went through this assay and about 1,100 (0.38%) were called active. Inconclusive results, whose numbers are uncertain, are shown with a selection of clear calls. The call rests on the fitted dose curve; in most records, active means well fitted inhibition curve with a large enough effect; inconclusive means small, poorly fitted or top-dose-only effect, or another doubt; inactive means no such curve, though single readings can be large or run the other way. Where the call is inconclusive, the potency comes from a doubtful curve fit.
# Target: Pyruvate kinase (Leishmania mexicana) (UniProt Q27686)
# Assay: qHTS Assay for Inhibitors of Leishmania Mexicana Pyruvate Kinase (LmPK)
# Details: purified LmPK, Kinase-Glo ATP luminescence, 1 h; activity change, negative = inhibition: at 57.5 µM (top of the series) unless noted
# Procedure, shortened: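 qHTS format; LmPK 0.1 nM; substrates PEP 0.5 mM and ADP 0.1 mM. One-hour room-temperature incubation, then coupled luciferase luminescence; 0.5 nM enzyme wells mark activation.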
# On the % scale 0 is the no-effect control and ±100 the full control effect; potency means the concentration at half of the fitted maximal effect; tags describe the fitted curve by direction and shape.
# Sequence of UniProt Q27686 (Q27686 whole entry, looked up): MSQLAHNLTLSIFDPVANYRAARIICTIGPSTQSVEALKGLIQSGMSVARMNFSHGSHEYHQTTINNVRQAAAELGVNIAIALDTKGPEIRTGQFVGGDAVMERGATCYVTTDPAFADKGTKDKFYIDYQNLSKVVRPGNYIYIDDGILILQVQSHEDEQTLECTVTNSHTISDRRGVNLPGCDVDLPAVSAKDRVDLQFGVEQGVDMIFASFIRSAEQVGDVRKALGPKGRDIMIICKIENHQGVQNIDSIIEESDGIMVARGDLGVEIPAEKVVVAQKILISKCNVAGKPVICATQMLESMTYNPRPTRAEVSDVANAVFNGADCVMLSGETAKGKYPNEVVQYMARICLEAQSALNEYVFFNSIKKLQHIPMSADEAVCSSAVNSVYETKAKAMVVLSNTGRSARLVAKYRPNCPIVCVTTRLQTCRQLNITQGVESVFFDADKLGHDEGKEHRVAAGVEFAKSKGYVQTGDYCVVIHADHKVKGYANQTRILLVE
Structure (SMILES),Potency,"activity change, negative = inhibition"
Cc1nc(-c2coc3cc(OCC(=O)O)ccc3c2=O)cs1,"inconclusive: 25.1 µM [falling, single point]",–
S=c1[nH]nc(-c2ccc(Cl)cc2Cl)n1-c1ccc2c(c1)OCCO2,"inconclusive: 11.2 µM [falling, partial curve]",–
C=CCn1c(C)cc(C)c(C#N)c1=O,–,inactive: 5.67%
Cc1ccc2c(c1)COc1c3ccc(C(=O)N4CCOCC4)cc3nn1-2,active: 15.8 µM,–
O=c1[nH][nH]c(=S)n1C1CCCCC1,"inconclusive: 8.91 µM [falling, partial curve]",–
Cc1ccc2nc(-c3ccccc3N)[nH]c2c1,"inconclusive: 17.8 µM [falling, partial curve]",–
Nc1ccc2nc(-c3cc(Cl)c(N)c(Cl)c3)[nH]c2c1,active: 15.8 µM,–
Cc1ccc(/C=C/C(=O)Nc2ccc([N+](=O)[O-])cc2)o1,"inconclusive: 31.6 µM [falling, single point]",–
COc1ccccc1-n1c(CCn2nc(C)c(Br)c2C)n[nH]c1=S,"inconclusive: 8.91 µM [falling, partial curve]",–
COc1ccc(CN(CCC#N)C(=S)NC(=O)c2ccccc2)cc1,active: 20 µM,–
O=C(Nc1ccc([N+](=O)[O-])cc1)C1COc2ccccc2O1 (stereo not given),–,inactive: 1.43%
CNC(=O)COC(=O)c1ccc(-c2nc3ccccc3s2)s1,active: 14.1 µM,–
COc1ccc(OCC(=O)N2CCN(c3nnc(-c4ccc(C)cc4)c4ccccc34)CC2)cc1,–,inactive: -3.98%
COc1cccc(NC(=O)c2sc3nc(N4CCOCC4)c4c(c3c2N)CCCC4)c1,–,inactive: -15.7%
COC(=O)Cn1c(CN2CCOCC2)nc2c1c(=O)n(C)c(=O)n2C,–,inactive: -3.12%
Cc1nc(-c2ccc(NC(=O)c3ccc(Br)o3)cc2)cs1,"inconclusive: 25.1 µM [falling, partial curve, poor fit]",–
COc1cccc(-c2nc3ccc([N+](=O)[O-])cc3o2)c1,"inconclusive: 28.2 µM [falling, partial curve]",–
COc1ccc(-c2nn(-c3ccccc3)cc2/C=N/NC(=O)c2ccc3c(c2)OCO3)cc1,–,inactive: 2.01%
Cc1ccc2oc(-c3ccccc3)nc2c1,active: 15.8 µM,–
Cc1cc(C(=O)Cn2nnc3ccccc3c2=O)c(C)n1-c1c(C)n(C)n(-c2ccccc2)c1=O,–,inactive: 3.76%
COC(=O)c1ccc(Cn2nnc3ccccc32)cc1,–,inactive: 6.07%
Brc1ccc(-c2noc(-c3ccccn3)n2)o1,"inconclusive: 31.6 µM [falling, single point]",–
O=C1C(Cl)=C(N2CCC(C(=O)O)CC2)C(=O)c2ccccc21,"inconclusive: 25.1 µM [falling, single point]",–
Cc1ccn2cc(-c3cnoc3C)nc2c1,"inconclusive: 28.2 µM [falling, single point]",–
COc1cccc(NC(=O)C(=O)NCc2ccncc2)c1,"inconclusive: 15.8 µM [falling, partial curve]",–

Structure (SMILES),Potency,"activity change, negative = inhibition"
COC(=O)Nc1nnc(/C=C/c2ccc(OC)cc2)s1,"inconclusive: 15.8 µM [falling, partial curve]",–
COc1ccc(-c2cn3ccsc3n2)cc1,"inconclusive: 25.1 µM [falling, partial curve]",–
Cc1cccc(OCCCN2CCOCC2)c1,–,inactive: 0.587%
CCN1C(=O)/C(=C/C=C2\C=CN(CC)c3ccccc32)SC1=S,active: 17.8 µM,–
COc1ccc(C2N(C(=O)c3ccccc3)CCN2C(=O)c2ccc(C)cc2)cc1 (stereo not given),–,inactive: 5.36%
O=C(NCCc1ccccc1F)c1ccc2c(c1)OCCO2,"inconclusive: 25.1 µM [falling, partial curve]",–
CCc1ccc(N2C(=O)c3sc4nnc(-c5ccccc5)c(=O)n4c3C2=O)cc1,"inconclusive: 28.2 µM [falling, single point]",–
CN(CC1CCOCC1)C(=O)CC1C(=O)NCCN1Cc1ccc(Cl)c(F)c1 (stereo not given),–,inactive: -5.94%
Cc1ccccc1-n1c(-c2cccnc2)n[nH]c1=S,active: 11.2 µM,–
COc1ccc(C(=O)Nc2ccccc2C(=O)N/N=C/c2ccncc2)cc1OC,active: 14.1 µM,–
CCN(CC)C(=O)c1ccc(Nc2nnc(C)c3ccccc23)cc1,"inconclusive: 22.4 µM [falling, partial curve]",–
O=c1nc(N/N=C/C=C/c2ccccc2)cn[nH]1,"inconclusive: 20 µM [falling, partial curve]",–
O=C(Nc1ccccc1)Nc1ccc(C(=O)N2CCCC2)cc1,active: 15.8 µM,–
COc1cc(/C=C2\SC(c3ccccc3)=NC2=O)cc(Cl)c1O,"inconclusive: 10 µM [falling, partial curve]",–
CC1(C)C=Cc2c(c3c(c4c(=O)c(-c5ccc(O)cc5)coc24)OC(C)(C)CC3)O1,"inconclusive: 4.47 µM [falling, partial curve]",–
CSc1ccccc1NC(=O)Nc1ccc(Cl)cc1,"inconclusive: 15.8 µM [falling, partial curve]",–
Cc1csc(NC(=O)c2cc(C)oc2C)n1,"inconclusive: 25.1 µM [falling, partial curve]",–
c1ccc(-c2cn3c(n2)-c2ccccc2C3)cc1,active: 5.62 µM,–
Cc1cc(S(=O)(=O)ON2C(=O)c3ccccc3C2=O)ccc1F,"inconclusive: 22.4 µM [falling, partial curve]",–
Cc1ccc2nc(-c3cc(N)cc(N)c3)oc2c1,"inconclusive: 22.4 µM [falling, single point]",–
Cc1ccsc1C(=O)Nc1nccs1,"inconclusive: 39.8 µM [falling, single point]",–
Oc1ccc(N2CCN(Cc3cc4c(cc3Br)OCCO4)CC2)cc1,"inconclusive: 15.8 µM [falling, partial curve]",–
O=c1[nH]c(SCc2n[nH]c(=S)n2-c2ccccc2)nc2sc3c(c12)CCC3,"inconclusive: 25.1 µM [falling, single point]",–
Cc1ccc(C(=O)Nc2ccc3c(c2)CCC3)o1,"inconclusive: 12.6 µM [falling, partial curve]",–
O=[N+]([O-])c1cc2oc3c(c2c(C=NCc2ccncc2)c1O)CCCC3,active: 14.1 µM,–
